Results from PubChem BioAssay AID624417 (National Center for Advancing Translational Sciences (NCATS), 2012).
The campaign covered roughly 410,000 compounds. About 6,400 (1.6%) were called active. The inconclusive results got no clear call from the source; some entries with a clear call stand among them for comparison. Calls come from the whole dose curve; as a rule, active = well fitted inhibition curve with a large enough effect; inconclusive = small, poorly fitted or top-dose-only effect; inactive = no such curve, though single readings can be large or run the other way. No potency is given beside an inconclusive call; the fits are too rough.

Molecular target: Glucagon-like peptide 1 receptor (Homo sapiens) (UniProt P43220)
UniProt P43220, sequence (P43220 whole entry, looked up): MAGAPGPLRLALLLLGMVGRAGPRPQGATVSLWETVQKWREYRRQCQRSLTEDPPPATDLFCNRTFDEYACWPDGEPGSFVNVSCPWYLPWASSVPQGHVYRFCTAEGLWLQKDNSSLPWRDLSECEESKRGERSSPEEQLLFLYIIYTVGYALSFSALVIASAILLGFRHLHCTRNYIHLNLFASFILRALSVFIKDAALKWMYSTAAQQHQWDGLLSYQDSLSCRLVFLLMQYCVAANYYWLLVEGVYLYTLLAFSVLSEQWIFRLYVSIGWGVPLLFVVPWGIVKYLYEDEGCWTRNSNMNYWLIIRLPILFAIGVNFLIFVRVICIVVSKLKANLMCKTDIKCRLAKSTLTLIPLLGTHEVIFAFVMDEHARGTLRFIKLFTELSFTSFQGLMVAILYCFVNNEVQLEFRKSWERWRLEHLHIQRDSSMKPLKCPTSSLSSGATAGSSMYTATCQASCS
Assay: qHTS of GLP-1 Receptor Inverse Agonists (Inhibition Mode); note: nearly all actives have a fitted effect of over 55% in size
Conditions: HEK293 GLP-1R CRE-luciferase, luminescence, 24 h, GLP-1R form is constitutively active; activity change, negative = inhibition: at 38.3 µM (top of the series) unless noted
In short: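 Cells are plated, allowed 12 hours at 37 deg C, then treated with compounds for 24 hr before luciferase detection reagent is added and luminescence is read after 12 min at room temperature. The HEK293 line carries constitutively active GLP-1R with a cAMP-responsive reporter.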
% is set by controls: 0 for no effect and ±100 for the full control effect; potency is the fitted concentration of half-maximal effect; tags give direction and shape of the fitted curve.

Row | Structure (SMILES) | activity change, negative = inhibition | Potency
1 | Cn1c(=N)n(CC(=O)O)c2ccccc21 | inactive: 21.8% | 
2 | O=C1N(CN2CCN(c3cccc(Cl)c3)CC2)c2ccccc2C12OCCCO2 |  | inconclusive [inhibitor, single point]
3 | CC1S/C(=N/N=C2CCC(C(C)(C)C)CC2)NC1=O (configuration not stated) |  | inconclusive [inhibitor, single point]
4 | O=[N+]([O-])c1cccc(/C=C2\CCc3cnn(C4CCS(=O)(=O)C4)c32)c1 (configuration not stated) | inactive: 20.1% | 
5 | O=C(CSc1nc(NS(=O)(=O)c2ccccc2)cc(=O)[nH]1)Nc1ccc(Cl)cc1 | inactive: -1.37% | 
6 | CCOC(=O)c1sc(=S)n(-c2ccc(Cl)cc2)c1C |  | inconclusive [inhibitor, partial curve, poor fit]
7 | COc1cccc(CN2C(=O)c3ccccc3Sc3ccc(C(=O)NCCc4ccc(Cl)cc4)cc32)c1 | inactive: 14.9% | 
8 | COc1cccc(OC)c1C(=O)Nc1cccc(S(=O)(=O)Nc2ccccc2Cl)c1 |  | inconclusive [inhibitor, partial curve, poor fit]
9 | COc1ccc(NC(=O)c2ccc3c(c2)c(C)c(C)n3Cc2ccc(F)cc2)c(OC)c1 |  | inconclusive [inhibitor, partial curve, poor fit]
10 | CC1CCN(c2nc(/C=C/c3ccccc3)nc3ccccc23)CC1 |  | inconclusive [inhibitor, single point]
11 | CCCCN(Cc1ccco1)S(=O)(=O)c1c[nH]c(C(=O)OC)c1 |  | inconclusive [inhibitor, partial curve, poor fit]
12 | O=C(c1ccccn1)C1CCCN(Cc2cn[nH]c2-c2cc3ccccc3o2)C1 (configuration not stated) |  | inconclusive [inhibitor, single point]
13 | Cc1ccc(O)c(-c2cc(C(F)(F)F)[nH]n2)c1 |  | inconclusive [inhibitor, single point]
14 | N#Cc1c(NCCCO)nc(NCc2ccccc2)c2c1CCN(Cc1ccccc1)C2 |  | inconclusive [inhibitor, single point]
15 | CCn1cc([N+](=O)[O-])c(C(=O)Nc2ccn(Cc3ccccc3F)n2)n1 | inactive: 7.39% | 
16 | O=C(NCc1ccccc1Cl)c1ccc(S(=O)(=O)Nc2cccc(C(F)(F)F)c2)cc1 |  | inconclusive [inhibitor, single point]
17 | Cc1ccc(Cl)cc1N1CCN(CCCNc2ncnc3onc(-c4ccc(F)cc4)c23)CC1 | inactive: 8.04% | 
18 | Cc1cc(Nc2sc(C(=O)c3ccc(F)cc3)c(N)c2C(=O)Nc2ccc(F)cc2)ccc1Cl |  | inconclusive [inhibitor, partial curve, poor fit]
19 | CCOC(=O)c1c(NC(=O)CNCCOC)sc2c1CCCC2 |  | inconclusive [inhibitor, partial curve, poor fit]
20 | Nc1nc(-c2ccc(Br)cc2)c(S(=O)(=O)c2ccccc2)s1 |  | inconclusive [inhibitor, partial curve, poor fit]
21 | CC1CCN(S(=O)(=O)c2ccc(C(=O)NC3CCS(=O)(=O)C3)cc2)CC1 (configuration not stated) | inactive: 2.59% | 

Row | Structure (SMILES) | activity change, negative = inhibition | Potency
22 | COC(=O)c1[nH]c2cccc(C)c2c1NC(=O)CN1CCN(c2ccccc2OC)CC1 |  | inconclusive [inhibitor, partial curve, poor fit]
23 | CCOC(=O)c1c(C)sc(-c2c(-c3ccc4c(c3)OCCO4)[nH]c3c2c(=O)[nH]c(=O)n3C)c1O | inactive: -6.98% | 
24 | COC1(OC)N=C(N)C2(C#N)C(c3ccc(F)cc3)C12C#N (configuration not stated) | inactive: 5.7% | 
25 | O=S(=O)(Nc1ccccc1N1CCOCC1)c1ccccc1C(F)(F)F |  | inconclusive [inhibitor, single point]
26 | C/C(=C\c1ccc(F)cc1)C(=O)c1c(C)cc(C)[nH]c1=O |  | inconclusive [inhibitor, partial curve, poor fit]
27 | N=c1c(C(=O)NCc2ccco2)cc2c(=O)n3ccccc3nc2n1Cc1ccccc1 | inactive: 49.2% | 
28 | CCCC(O)(CCC)C(=O)NNc1ccccc1 |  | inconclusive [inhibitor, partial curve, poor fit]
29 | O=CNc1cc(-c2cccc(F)c2)cn2c(-c3ccc(F)c(Cl)c3)cnc12 | inactive: 7.19% | 
30 | CCC(C)[C@H]1CN=C(N)N1CCc1cc(C(F)(F)F)cc(C(F)(F)F)c1 (some centres not stated) |  | inconclusive [inhibitor, single point]
31 | Cc1cccc(OCCN2C(=O)C(=O)c3cccc(C)c32)c1 | inactive: -3.02% | 
32 | COc1ccc(N(C(=O)COc2c(C)cccc2C)S(=O)(=O)c2ccc(Cl)cc2)cc1 |  | active: 10 µM
33 | COc1cccc(NC(=O)CN(C2=NC3CS(=O)(=O)CC3S2)c2cccc(C)c2)c1 (configuration not stated) |  | inconclusive [inhibitor, partial curve, poor fit]
34 | COc1ccc(C2NC(c3ccc(OC)cc3)C(C)C(=O)C2C)cc1 (configuration not stated) |  | inconclusive [inhibitor, single point]
35 | N/C(=N\OC(=O)c1cccc2ccccc12)c1ccccn1 |  | inconclusive [inhibitor, single point]
36 | CCOc1cc(N(CC)CC)ccc1/C=C(/C#N)c1nc2ccccc2[nH]1 |  | inconclusive [inhibitor, full curve, poor fit]
37 | Cc1cc(C)cc(N(CCC#N)C(=O)COC(=O)CCc2c[nH]c3ccccc23)c1 |  | inconclusive [inhibitor, single point]
38 | O=C(OCc1nnc(-c2ccc([N+](=O)[O-])cc2)o1)C1CC(=O)N(CCc2ccccc2)C1 (configuration not stated) | inactive: 7.31% | 
39 | CSc1cc(-c2ccncc2)nc(-c2ccc(Cl)cc2)c1 | inconclusive: -39.2% [inhibitor] | 
40 | CCOc1ccc(Br)cc1S(=O)(=O)Nc1ccc(Cl)c(S(=O)(=O)N(C)C)c1 |  | inconclusive [inhibitor, single point]
41 | O=[N+]([O-])c1ccc(/C=N/N2CCN(Cc3ccccc3)CC2)cc1 |  | inconclusive [inhibitor, partial curve, poor fit]
42 | Cn1c(CCN2CCN(c3ccccn3)CC2)nc2cc(NC(=O)COc3ccc(Cl)cc3)ccc21 |  | inconclusive [inhibitor, single point]

Row | Structure (SMILES) | activity change, negative = inhibition | Potency
43 | CCn1ccnc1CNCc1ccc(OCC(O)CN(C)Cc2ccccc2)cc1 (configuration not stated) |  | inconclusive [inhibitor, partial curve, poor fit]
44 | COc1ccc(-c2nnc(SC(C)C(=O)NCc3ccc4c(c3)OCO4)n2Cc2ccco2)cc1 (configuration not stated) |  | inconclusive [inhibitor, partial curve]
45 | O=C(NCc1ccccc1)N1CCC(CO)(CCc2ccccc2)CC1 |  | inconclusive [inhibitor, single point]
46 | Cc1c(NC(=O)c2cc(-c3cccc(Cl)c3)on2)c(=O)n(-c2ccccc2)n1C |  | inconclusive [inhibitor, partial curve, poor fit]
47 | O=C(NCCC1=CCCCC1)c1ccc2c(c1)N(Cc1ccc(F)cc1)C(=O)c1ccccc1S2(=O)=O |  | inconclusive [inhibitor, partial curve, poor fit]
48 | CCc1ccc(NC(=O)[C@H](Cc2ccccc2)NC(=O)C2CCN(C(=O)[C@@H](N)CC(C)C)CC2)cc1 |  | inconclusive [inhibitor, partial curve, poor fit]
49 | Cc1ccc(S(=O)(=O)N2[C@@H](c3ccc(C(C)(C)C)cc3)C(C(=O)O)=CC[C@H]2c2ccc3c(c2)OCO3)cc1 |  | inconclusive [inhibitor, partial curve, poor fit]
50 | COc1cc(C#Cc2c(-c3cncn3C)n(C)c3ccc(-c4cc(OC)c(OC)c(OC)c4)cc23)cc(OC)c1 |  | inconclusive [inhibitor, single point]
51 | N#C/C(=C\c1ccc(N2CCOCC2)o1)C(=O)Nc1ccc(O)cc1 | inactive: 50.1% | 
52 | COc1ccccc1C1CCN(Cc2cccc([N+](=O)[O-])c2)CC1 |  | inconclusive [inhibitor, partial curve, poor fit]
53 | CCC1COC(c2cccn2Cc2ccc(Cl)cc2)=N1 (configuration not stated) |  | inconclusive [inhibitor, partial curve, poor fit]
54 | O=S(=O)(NCCC1=CCCCC1)c1ccc(OC(F)(F)F)cc1 |  | inconclusive [inhibitor, single point]
55 | Cc1ccc(NC(=O)N2CCCC(c3nc(-c4ccc(F)cc4)no3)C2)cc1 (configuration not stated) |  | active: 7.94 µM
56 | CCCCn1nc(C(=O)Nc2ccc3c(c2)OCCO3)c2ccccc2c1=O |  | inconclusive [inhibitor, single point]
57 | NCCNC(=O)c1c(NC(=O)c2ccccc2)sc2c1CCCC2 |  | inconclusive [inhibitor, partial curve, poor fit]
58 | O=C(CSc1nnc(N2CCCC2)n1-c1cccc(Cl)c1)N1CCN(c2ccccn2)CC1 |  | inconclusive [inhibitor, single point]
59 | CCOC(=O)c1cc(C#N)c(N2CCN(C(=O)c3ccccc3)CC2)nc1C(F)(F)F |  | inconclusive [inhibitor, partial curve, poor fit]
60 | CC(C)(C)OC(=O)N1C(=O)[C@](OC(=O)c2ccccc2)(c2ccccc2)c2cccc(F)c21 |  | inconclusive [inhibitor, partial curve, poor fit]
61 | COc1ccc(CNC2CCCc3ccccc32)cc1OC (configuration not stated) |  | inconclusive [inhibitor, single point]
62 | Cc1cc(C)nc(Sc2c(C)nn(-c3ccccc3)c2C)n1 |  | inconclusive [inhibitor, single point]
